Reference: the supplement of paper PMC8728848
The list shows a part of the results.

Assays:
Assay in all cases: glycan array binding signal (z-score within array); higher = stronger binding
Details in all cases: glycan notation: IUPAC condensed, linker removed
Gal6S(b1-4)Glc6S = molecular target: Gal6S(b1-4)Glc6S
In short: (§1)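 Negative Z-scores can be read as non-binding. The Z-score is calculated within each array and then averaged across arrays of one protein sequence at different concentrations or buffers and across linkers. Arrays, 3228 in all, were curated from the Consortium for Functional Glycomics database and kept only where the protein sequence was available.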

Gal6S(b1-4)GlcNAc = molecular target: Gal6S(b1-4)GlcNAc
In short: as §1

Gal6S(b1-4)GlcNAc6S = molecular target: Gal6S(b1-4)GlcNAc6S
In short: as §1

GalNAc(a1-3)Gal = molecular target: GalNAc(a1-3)Gal
In short: as §1

GalNAc(a1-3)GalNAc = molecular target: GalNAc(a1-3)GalNAc
In short: as §1

[1] = molecular target: GalNAc(a1-3)GalNAc(b1-3)Gal(a1-4)Gal(b1-4)Glc
In short: as §1

[2] = molecular target: GalNAc(a1-3)GalNAc(b1-3)Gal(a1-4)Gal(b1-4)GlcNAc
In short: as §1

GalNAc(b1-3)Gal = molecular target: GalNAc(b1-3)Gal
In short: as §1

[3] = molecular target: GalNAc(b1-3)Gal(a1-4)Gal(b1-4)GlcNAc
In short: as §1

[4] = molecular target: GalNAc(b1-3)Gal(a1-4)Gal(b1-4)GlcNAc(b1-3)Gal(b1-4)Glc
In short: as §1

[5] = molecular target: GalNAc(b1-3)Gal(a1-6)Gal(b1-4)Glc
In short: as §1

GalNAc(b1-3)GalNAc = molecular target: GalNAc(b1-3)GalNAc
In short: as §1

GalNAc(b1-3)GlcNAc = molecular target: GalNAc(b1-3)GlcNAc
In short: as §1

GalNAc(b1-4)Gal(b1-4)Glc = molecular target: GalNAc(b1-4)Gal(b1-4)Glc
In short: as §1

GalNAc(b1-4)GlcNAc = molecular target: GalNAc(b1-4)GlcNAc
In short: as §1

[6] = molecular target: GalNAc(b1-4)GlcNAc(b1-2)Man
In short: as §1

[7] = molecular target: GalNAc(b1-4)GlcNAc(b1-2)Man(a1-3)[GalNAc(b1-4)GlcNAc(b1-2)Man(a1-6)]Man(b1-4)GlcNAc(b1-4)GlcNAc
In short: as §1

[8] = molecular target: GalNAc(b1-4)GlcNAc(b1-3)GalNAc(b1-4)GlcNAc
In short: as §1

GalNAc(b1-4)GlcNAc6S = molecular target: GalNAc(b1-4)GlcNAc6S
In short: as §1

GalNAc(b1-6)GalNAc = molecular target: GalNAc(b1-6)GalNAc
In short: as §1

GalNAc3S(b1-4)GlcNAc = molecular target: GalNAc3S(b1-4)GlcNAc
In short: as §1

GalNAc3S(b1-4)GlcNAc3S = molecular target: GalNAc3S(b1-4)GlcNAc3S
In short: as §1

[9] = molecular target: GalNAc3S(b1-4)[Fuc(a1-3)]GlcNAc
In short: as §1

GalNAc4S6S(b1-4)GlcNAc = molecular target: GalNAc4S6S(b1-4)GlcNAc
In short: as §1

GalNAc6S(b1-4)GlcNAc = molecular target: GalNAc6S(b1-4)GlcNAc
In short: as §1

Glc(a1-4)Glc = molecular target: Glc(a1-4)Glc
In short: as §1

[10] = molecular target: Glc(a1-4)Glc(a1-4)Glc(a1-4)Glc
In short: as §1

Glc(a1-6)Glc(a1-6)Glc = molecular target: Glc(a1-6)Glc(a1-6)Glc
In short: as §1

[11] = molecular target: Glc(a1-6)Glc(a1-6)Glc(a1-6)Glc
In short: as §1

Glc(b1-4)Glc = molecular target: Glc(b1-4)Glc
In short: as §1

Glc(b1-6)Glc = molecular target: Glc(b1-6)Glc
In short: as §1

GlcA(b1-3)Gal = molecular target: GlcA(b1-3)Gal
In short: as §1

GlcA(b1-3)GlcNAc = molecular target: GlcA(b1-3)GlcNAc
In short: as §1

GlcA(b1-6)Gal = molecular target: GlcA(b1-6)Gal
In short: as §1

[12] = molecular target: GlcA3S(b1-3)Gal(b1-4)GlcNAc(b1-2)Man
In short: as §1

[13] = molecular target: GlcA3S(b1-3)Gal(b1-4)GlcNAc(b1-3)Gal(b1-4)Glc
In short: as §1

[14] = molecular target: GlcNAc(a1-3)Gal(b1-4)GlcNAc
In short: as §1

B1: PX9937D-bvu-500-26-500 (Bacteroides vulgatus) (protein)
chain: DPVSDITDLNYWKTPEQFDSFVFGLHSRFRSHSWNMFLLGEARSDVFGGIPFGGEATQGMERFPYNTLNAENPGISGFGDLYQNINQMNLFISRTLHTDVLTESARNYYLGQVYGLRAYYMYQLYRSWGDVVFTEEPSLGFEVGKLAKAATPAAEIFEQVKKDIESSLSYFGSDYTIKEKKSLWSKAATLMLKADVYLWSAHRDGGEGDARTAKNALVDIQNNISRSNLDLMDTYQGVFAYDNKGNKEIIFTIHNELFEYNLWNGNNDLFPQADYLGKFYNADGTLINTSVENNFGIMRLMVKLENFKKFLPGDTRRDVTLKDVYNKVENGKLELVGVYPHKYWGVMNGSTRVRCDDYPIYRYSDLLLMLAEAKVLLGEDPATEINRVRRRAFGDAYDASTVGFPNQEVDKRPADAVLQERLFEFMLEGKRWYDLRRFGDSYVLDYTPAEPARLLWPINQGALTNNPLLKQTVGY
glycan array binding signal (z-score) (Gal6S(b1-4)Glc6S): 0.307 | glycan array binding signal (z-score) (Gal6S(b1-4)GlcNAc): -0.446 | glycan array binding signal (z-score) (Gal6S(b1-4)GlcNAc6S): -0.22 | glycan array binding signal (z-score) (GalNAc(a1-3)Gal): 0.291 | glycan array binding signal (z-score) (GalNAc(a1-3)GalNAc): -0.228 | glycan array binding signal (z-score) [1]: -0.432 | glycan array binding signal (z-score) [2]: -0.65 | glycan array binding signal (z-score) (GalNAc(b1-3)Gal): -0.465 | glycan array binding signal (z-score) [3]: -0.367 | glycan array binding signal (z-score) [4]: -0.005 | glycan array binding signal (z-score) [5]: -0.122 | glycan array binding signal (z-score) (GalNAc(b1-3)GalNAc): -0.663 | glycan array binding signal (z-score) (GalNAc(b1-3)GlcNAc): -0.418 | glycan array binding signal (z-score) (GalNAc(b1-4)Gal(b1-4)Glc): -0.02 | glycan array binding signal (z-score) (GalNAc(b1-4)GlcNAc): 1.34 | glycan array binding signal (z-score) [6]: -0.282 | glycan array binding signal (z-score) [7]: -0.394 | glycan array binding signal (z-score) [8]: -0.065 | glycan array binding signal (z-score) (GalNAc(b1-4)GlcNAc6S): -0.065 | glycan array binding signal (z-score) (GalNAc(b1-6)GalNAc): -0.289 | glycan array binding signal (z-score) (GalNAc3S(b1-4)GlcNAc): -0.727 | glycan array binding signal (z-score) (GalNAc3S(b1-4)GlcNAc3S): -0.275 | glycan array binding signal (z-score) [9]: -0.133 | glycan array binding signal (z-score) (GalNAc4S6S(b1-4)GlcNAc): -0.21 | glycan array binding signal (z-score) (GalNAc6S(b1-4)GlcNAc): -0.308 | glycan array binding signal (z-score) (Glc(a1-4)Glc): -0.49 | glycan array binding signal (z-score) [10]: -0.375 | glycan array binding signal (z-score) (Glc(a1-6)Glc(a1-6)Glc): -0.377 | glycan array binding signal (z-score) [11]: -0.405 | glycan array binding signal (z-score) (Glc(b1-4)Glc): -0.503 | glycan array binding signal (z-score) (Glc(b1-6)Glc): -0.108 | glycan array binding signal (z-score) (GlcA(b1-3)Gal): 0.052 | glycan array binding signal (z-score) (GlcA(b1-3)GlcNAc): -0.435 | glycan array binding signal (z-score) (GlcA(b1-6)Gal): -0.446 | glycan array binding signal (z-score) [12]: -0.565 | glycan array binding signal (z-score) [13]: -0.24 | glycan array binding signal (z-score) [14]: -0.541
